# Among all 420,000 compounds or so, about 50,000 (12%) were called active. Inconclusive results, whose numbers are uncertain, are shown with a selection of clear calls. The call rests on the fitted dose curve; in most records, active means well fitted inhibition curve with a large enough effect; inconclusive means small, poorly fitted or top-dose-only effect; inactive means flat fitted curve, though single readings scatter. No potency is given beside an inconclusive call; the fits are too rough.
# Assay: qHTS for Inhibitors of human tyrosyl-DNA phosphodiesterase 1 (TDP1): qHTS in cells in presence of CPT; further: nearly all actives have a fitted effect of over 55% in size
# Settings: chicken DT40 Tdp1-/-;hTDP1 cells + 20 nM CPT, ATP luminescence, 48 h; series mostly up to 46.2 µM
# Summary of the method: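 Chicken DT40 Tdp1-/- cells complemented with human TDP1, 400 cells/well, exposed to compounds plus 20 nM camptothecin for at least 48 h at 37 C; viability read as ATP content by CellTiter-Glo luminescence.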
# Potency means the concentration at half of the fitted maximal effect; tags describe the fitted curve by direction and shape.
row,Compound,Potency
1,CCC1(C)Cc2c(C#N)c(N)sc(=S)c2CO1 (stereo not drawn),inactive
2,COc1cccc(-c2ccnc3c(-c4ccccc4)c(C)nn23)c1,"inconclusive [inhibitor, partial curve]"
3,CCOC(=O)c1[nH]c2ccccc2c1NC(=O)c1cc(OC)cc(OC)c1,active: 23.1 µM
4,CCC1Sc2ccc(S(=O)(=O)Nc3ccc(OC)cc3)cc2NC1=O (stereo not drawn),"inconclusive [inhibitor, single point]"
5,Cc1cc(C)cc(-c2nnc(SCC(=O)Nc3cc(C)on3)o2)c1,inactive
6,NS(=O)(=O)c1ccc(NC(=S)NCC2CCCO2)cc1 (stereo not drawn),"inconclusive [inhibitor, single point]"
7,CCC(C)NC(=O)Cn1cnc2sc(C)c(S(=O)(=O)N3CCN(c4ncccn4)CC3)c2c1=O (stereo not drawn),inactive
8,Cc1cc(OCCN2CCOCC2)ccc1Cl,inactive
9,Cc1ccc2nc(-c3ccc(NC(=O)COC(=O)c4ccc(Br)o4)cc3)sc2c1,"inconclusive [inhibitor, single point]"
10,Cc1cc(C)c(S(=O)(=O)Nc2ccccc2)c(C)c1,"inconclusive [inhibitor, partial curve]"
11,CCc1sc(C(=O)NCCc2ccc(S(N)(=O)=O)cc2)cc1Br,"inconclusive [inhibitor, single point]"
12,CCOc1ccc(CCN2C(=S)N([C@@H](CC(C)C)CN3CCCC3CN3C(=S)NC[C@@H]3Cc3ccccc3)C[C@@H]2CC(C)C)cc1 (stereo partly drawn),"inconclusive [inhibitor, single point]"
13,CCC(CC)c1nnc(NC(=O)CCS(=O)(=O)Cc2ccccc2)s1,"inconclusive [inhibitor, single point]"
14,CCN(CC)S(=O)(=O)c1cccc(NC(=O)COC(=O)c2cc(C)oc2C)c1,inactive
15,FC(F)(F)c1cccc(CC2CN(Cc3ccccc3)Cc3ccccc3N2c2cc(Cl)cc(Cl)c2)c1 (stereo not drawn),inactive
16,CCCOc1ccc(Cn2cnc3ccccc32)cc1,"inconclusive [inhibitor, single point]"
17,CCOCCCNC(=O)c1c(N)n(-c2ccc(S(N)(=O)=O)cc2)c2nc3ccccc3nc12,inactive
18,CCOC(=O)c1ccccc1C(=O)N1CCOCCOCCOCC1,inactive
19,CCCSC1=C(C#N)C(c2cccs2)C(C(=O)Nc2ccccc2)=C(C)N1 (stereo not drawn),"inconclusive [inhibitor, single point]"
20,CC1=NN(/C(=N\c2nnc(C)s2)Nc2ccc(C)cc2)[C@H](c2ccc(C)cc2)S1,"inconclusive [inhibitor, single point]"
21,CCn1nnc2cc(C(=O)O)ccc21,inactive
22,O=C(Oc1cccc(/C=N/Nc2nc(N3CCOCC3)nc(N3CCOCC3)n2)c1)c1ccco1,"inconclusive [inhibitor, partial curve]"
23,C/C(=N\NC(=O)c1c(Br)c(C)nn1C)c1cccc(NC(=O)c2ccccc2C)c1,"inconclusive [inhibitor, single point]"
24,Cc1nc(NC(=O)/C=C/c2ccccc2)sc1C(=O)Nc1ccc(Cl)cc1,"inconclusive [inhibitor, partial curve, poor fit]"
25,CCCc1ccc(C#N)c(SC2CC(=O)N(c3ccc(OC)cc3)C2=O)n1 (stereo not drawn),inactive

row,Compound,Potency
1,CCC(CO)Oc1cc(NCc2ccccc2OC)c2ncn(C(C)C)c2c1 (stereo not drawn),"inconclusive [inhibitor, partial curve, poor fit]"
2,Cc1cc(C(=O)CSc2ncn[nH]2)c(C)n1-c1cccc(S(=O)(=O)N2CCOCC2)c1,"inconclusive [inhibitor, single point]"
3,CN=c1scc(C)n1/N=C/c1ccc(O)cc1O,"inconclusive [inhibitor, single point]"
4,COC(=O)c1ccccc1NC(=O)COCc1cc(-c2cccs2)on1,"inconclusive [inhibitor, partial curve]"
5,O=S(=O)(O)c1nc2ccccc2[nH]1,inactive
6,CCOC(=O)Nc1c(C(=O)OC)[nH]c2cc(OC)ccc12,"inconclusive [inhibitor, partial curve, poor fit]"
7,CCn1c(=O)n(-c2ccc(F)c(Cl)c2)c(=O)c2sc3ccccc3c21,inactive
8,CCOc1cc(CNCCc2ccc(S(N)(=O)=O)cc2)ccc1OCC(=O)NC1CCCCC1,"inconclusive [inhibitor, single point]"
9,Cc1ccc(CN(C(=O)c2ccc(F)cc2)c2ccccn2)o1,inactive
10,CCc1ccc2c(O)c3c(cc2c1C(=O)OC)C(=O)c1c(O)ccc(O)c1C3=O,inactive
11,CC(O)(c1cccc(F)c1)c1nc(-c2ccoc2)cs1 (stereo not drawn),"inconclusive [inhibitor, single point]"
12,Cc1ccc(CN(C(=O)c2cc(=O)c3cc(C)cc(C)c3o2)C2CCS(=O)(=O)C2)cc1 (stereo not drawn),"inconclusive [inhibitor, single point]"
13,CN1CC(O)C2=CC(=O)C(=O)C=C21 (stereo not drawn),"inconclusive [inhibitor, single point]"
14,CN(Cc1ccccc1)C(=O)c1ccc(Nc2nc(C(N)COCc3ccccc3)cs2)nc1 (stereo not drawn),"inconclusive [inhibitor, single point]"
15,CN(C)C(=O)c1ccc(NC(=O)c2cc(-n3cnnc3)ccc2Cl)cc1,"inconclusive [inhibitor, single point]"
16,Cc1ccccc1C(=O)Oc1cc(-c2ccc3c(c2)OCO3)cc(=O)c2c(C)oc(C)c12,"inconclusive [inhibitor, single point]"
17,CC(=O)Nc1ccc(NC(=O)c2ccccc2Nc2ccccc2)cc1,"inconclusive [inhibitor, single point]"
18,Cc1ccccc1CN1C(=O)C(C)Sc2ccc(-c3ccco3)cc21 (stereo not drawn),"inconclusive [inhibitor, single point]"
19,O=C(COc1ccccc1Cl)N(Cc1ccco1)Cc1ccco1,"inconclusive [inhibitor, single point]"
20,Cn1c(=O)c2c(-c3ccccc3)n(Cc3cccnc3)cc2n(C)c1=O,inactive
21,CC(=NNC(=S)N1CC2CCC(CC2)C1)c1ccncn1,active: 0.0366 µM
22,COc1cc(OC)cc(N2CC(C)(C)C2=O)c1,"inconclusive [inhibitor, single point]"
23,COc1ccc(C(=O)Nc2ccc(C(=O)N3CCC(C)CC3)cc2)cc1OC,inactive
24,CN(C)CCOCCOc1ccc(Cl)cc1C(C)(C)C,"inconclusive [inhibitor, single point]"
25,c1cc2c3c(c1)c1c(n3CCNC2)CCCC1,"inconclusive [inhibitor, partial curve, poor fit]"

row,Compound,Potency
1,COc1ccc(C(=O)NCC(=O)OCc2ccc(F)cc2Cl)cc1OC,inactive
2,O=C(O)c1ccc(/C=N/N2CCN(C3c4ccccc4-c4ccccc43)CC2)cc1,inactive
3,COc1ccc(CN2CCNC(=O)C2CC(=O)NCCSc2nccn2C)c(OC)c1 (stereo not drawn),inactive
4,CCCN1C(=O)SC(CC(=O)Nc2ccccc2)C1=O (stereo not drawn),active: 23.1 µM
5,CCN(CC)CCCNC(=O)CNC(=O)c1nn(-c2ccc(OC)cc2OC)c(=O)c2ccccc12,inactive
6,C/C(=N\NC(=S)NC1CCCCC1)c1ccccc1,"inconclusive [inhibitor, single point]"
7,O=C1NC[C@H](c2ccccc2)N(CCC23CC4CC(CC(C4)C2)C3)C1=O,"inconclusive [inhibitor, single point]"
8,Cc1cccc(N(C(=O)CNC(=O)c2ccco2)C(C(=O)NC2CCCCC2)c2cccnc2)c1 (stereo not drawn),inactive
9,Cc1ccc(CNc2nc3ccccc3n3nnnc23)cc1,inactive
10,O=C1CCC/C1=C\c1ccccc1,inactive
11,Cc1cc(C)cc(NC(=O)C2CCCN(c3cnccn3)C2)c1 (stereo not drawn),"inconclusive [inhibitor, single point]"
12,CC(C)CNS(=O)(=O)c1ccc(S(=O)(=O)N2CCN(C3CCCC3)CC2)cc1,inactive
13,CN(Cc1ccccc1)C(=C(Cl)Cl)/C(=C1/NCCN1C)[N+](=O)[O-],inactive
14,O=C(NC1CCCCC1)C1CCCN(S(=O)(=O)c2cccc3cccnc23)C1 (stereo not drawn),"inconclusive [inhibitor, partial curve]"
15,O=C(NCc1ccc(F)cc1)c1cnc(N2CCOCC2)c2ccccc12,"inconclusive [inhibitor, single point]"
16,CCN(CC(=O)Nc1c(F)cccc1F)C(=O)c1ccc2ncsc2c1,inactive
17,Cc1ccc(Cl)cc1NC(=O)c1cc2c(=O)n3cccc(C)c3nc2n1C,active: 0.58 µM
18,O=C(CSc1ccc(-c2ccccn2)nn1)c1ccccc1,"inconclusive [inhibitor, single point]"
19,CC1CCN(CCCNC(=O)CN2C(=O)CSc3ccc(S(=O)(=O)N4CCC(C)CC4)cc32)CC1,"inconclusive [inhibitor, single point]"
20,CC1CCCCN1C(=O)c1ccc(NC(=O)c2ccccc2Cl)cc1 (stereo not drawn),inactive
21,COc1ccccc1N1CCN(S(=O)(=O)c2c(C)sc3ncn(CC(=O)Nc4ccc(C(C)C)cc4)c(=O)c23)CC1,"inconclusive [inhibitor, single point]"
22,O=C(COC(=O)C1(c2ccc(Cl)cc2)CCCC1)NC1CCS(=O)(=O)C1 (stereo not drawn),"inconclusive [inhibitor, single point]"
23,COc1ccc(-n2c(=O)c3c4c(sc3n(CC(=O)N3CCCCC3C)c2=O)CCC4)c(OC)c1 (stereo not drawn),"inconclusive [inhibitor, single point]"

# Source: PubChem BioAssay AID686979 (National Center for Advancing Translational Sciences (NCATS), 2013)
